# Experimental data: PubChem BioAssay (NCATS)
# This is one part of the list. Shown are side measurements of this screen, not its main read-out; they come without a call. For some assays here: The list favours compounds with an active or inconclusive main result. Words in brackets tell the shape of the fitted curve; partial curves, single points and poor fits give uncertain potencies.
# Columns and labels:
# [1] = qHTS drug screen for cell cycle checkpoint inhibitors in PARPi-resistant BRCA-mutant ovarian cancer cell lines. (AID 1963452); conditions: PEO1/OlaR viability, CellTiter-Glo luminescence, 96 h
# In short: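 PEO1, PEO4 and PEO1/OlaR ovarian cancer cells, 600 per well, exposed 96 h at 37C to a dilution series. Viability read by CellTiter-Glo luminescence, normalized to DMSO and empty wells; activity summarized as Z-AUC.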
# [2] = qHTS for identification of novel therapeutic agents for treatment of microphthalmiaassociated transcription factor (MiT) renal cell carcinoma (RCC) (AID 1963991); conditions: CellTiter-Glo, 48 h; for z-score: stronger effect = lower value
# In short: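 Curves over 11 concentrations were fitted to CellTiter-Glo luminescence, scaled between empty wells (0%) and DMSO (100%) viability. Cells were UOK109, UOK124 and UOK145 TFE3-fusion RCC lines at 500/well, exposed 48 hours at 37 C.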
# [3] = measured here: PEO1 parental viability
# [4] = TFE3-RCC UOK109 viability, measured here: UOK109 Z-AUC
# [5] = TFE3-RCC viability, measured here: UOK124 Z-AUC
# [6] = TFE3-RCC viability, measured here: UOK124 cell viability
# [7] = TFE3-RCC viability, measured here: UOK145 Z-AUC
# [8] = TFE3-RCC viability, measured here: UOK145 cell viability
# Tags describe the fitted curve by direction and shape.
Compound,"AC50 [1, 3]",AC50 ([1]; measured here: PEO4 viability),"z-score [2, 4]","z-score [2, 5]","AC50 [2, 6]","z-score [2, 7]","AC50 [2, 8]"
COc1cc(Nc2ncc(F)c(Nc3ccc4c(n3)N(COP(=O)(O)O)C(=O)C(C)(C)O4)n2)cc(OC)c1OC,"15.5 µM [falling, single point]","15.5 µM [falling, partial curve]",-1.35,-0.386,"2.96 µM [falling, partial curve]",-0.958,"1.18 µM [falling, full curve]"
CN1N=C(N)c2cn([C@@H]3O[C@H](COP(=O)(O)O)[C@@H](O)[C@@H]3O)c3ncnc1c23,"3.09 µM [falling, full curve]","2.19 µM [falling, partial curve]",-0.24,-0.235,"0.372 µM [falling, partial curve]",0.165,"5.9 µM [falling, partial curve]"
CO[C@@H](C(=O)N1Cc2[nH]nc(NC(=O)c3ccc(N4CCN(C)CC4)cc3)c2C1)c1ccccc1,"3.09 µM [falling, full curve]","3.89 µM [falling, full curve, poor fit]",0.0191,-0.402,"8.33 µM [falling, partial curve]",-0.0232,"26.4 µM [falling, single point]"
CSc1cccc(Nc2ncc3cc(-c4c(Cl)cccc4Cl)c(=O)n(C)c3n2)c1,"15.5 µM [falling, partial curve]","19.5 µM [falling, single point]",-0.759,-0.958,"0.187 µM [falling, full curve]",-0.511,"0.418 µM [falling, full curve]"
CC(C)n1cnc2c(NCCc3ccc(O)cc3)nc(-c3csc4ccccc34)nc21,"24.5 µM [falling, single point]","15.5 µM [falling, partial curve]",0.305,-0.539,"33.2 µM [falling, single point]",-0.351,"14.8 µM [falling, partial curve]"
Nc1ccc(C(=O)c2cc3c(ccc4ccccc43)[nH]2)cc1,"2.51 µM [falling, full curve]","2.24 µM [falling, full curve]",-0.136,0.258,"11.8 µM [falling, partial curve]",-0.246,"6.62 µM [falling, full curve]"
CC(C)NC[C@@H](C(=O)N1CCN(c2ncnc3c2[C@H](C)C[C@H]3O)CC1)c1ccc(Cl)cc1,"9.77 µM [falling, partial curve, poor fit]","7.76 µM [falling, partial curve, poor fit]",-0.139,-1.1,"23.5 µM [falling, partial curve]",0.0641,"14.8 µM [falling, partial curve]"
CN(C)c1ccccc1CN1CCCN(Cc2ccccc2N(C)C)C1c1ccncc1,"21.9 µM [falling, single point]","24.5 µM [falling, single point]",-0.672,-0.00922,"18.7 µM [falling, partial curve]",0.308,"26.4 µM [falling, single point]"
CCNC(=O)c1noc(-c2cc(C(C)C)c(O)cc2O)c1-c1ccc(CN2CCOCC2)cc1,"0.0436 µM [falling, full curve]","0.123 µM [falling, full curve]",-0.721,-1.72,"0.0935 µM [falling, partial curve, poor fit]",-1.47,"0.264 µM [falling, full curve]"
Cc1cc(Nc2nc(N[C@@H](C)c3ncc(F)cn3)ncc2Cl)n[nH]1,"4.36 µM [falling, full curve]","2.19 µM [falling, full curve]",1.4,-0.207,"18.7 µM [falling, partial curve, poor fit]",-0.214,"29.6 µM [falling, single point]"
Cc1csc(-c2nnc(Nc3ccc(Oc4ncccc4-c4ccnc(N)n4)cc3)c3ccccc23)c1,"5.49 µM [falling, partial curve]","4.9 µM [falling, partial curve, poor fit]",0.24,-0.0882,"23.5 µM [falling, partial curve, poor fit]",-0.0777,"20.9 µM [falling, partial curve]"
COc1cc(C)c(Sc2cnc(NC(=O)c3ccc(CNC(C)C(C)(C)C)cc3)s2)cc1C(=O)N1CCN(C(C)=O)CC1 (stereo unspecified),"13.8 µM [falling, partial curve]","6.92 µM [falling, partial curve]",-0.295,-0.452,"14.8 µM [falling, partial curve]",-0.966,"13.2 µM [falling, partial curve]"
c1nc2nc(Nc3ccc(N4CCOCC4)cc3)nc(NC3CCCCC3)c2[nH]1,"8.71 µM [falling, partial curve]","7.76 µM [falling, partial curve, poor fit]",-0.216,0.126,"18.7 µM [falling, partial curve]",0.0537,"20.9 µM [falling, partial curve]"
COC(=O)Nc1ccc(-c2nc(N3CCOCC3)c3cnn(C4CCN(C(=O)OC)CC4)c3n2)cc1,"0.871 µM [falling, full curve]","0.616 µM [falling, full curve]",-1.83,-0.0771,"4.18 µM [falling, full curve]",-2.49,"1.87 µM [falling, full curve]"
CNC(=O)c1nn(C)c2c1C(C)(C)Cc1cnc(Nc3ccc(N4CCN(C)CC4)cc3)nc1-2,"0.871 µM [falling, full curve]","2.75 µM [falling, full curve]",-1.6,-1.18,"5.9 µM [falling, partial curve]",-0.268,"1.18 µM [falling, full curve]"
COc1cc2c(Oc3ccc4[nH]c(C)cc4c3F)ncnc2cc1OCCCN1CCCC1,"19.5 µM [falling, partial curve]","17.4 µM [falling, partial curve]",-0.773,0.0578,"20.9 µM [falling, partial curve]",0.473,"29.6 µM [falling, single point]"
CCc1ccc(C(=O)Nc2cc(CN3CCN(C)CC3)cc(C(F)(F)F)c2)cc1C#Cc1cnc2ccnn2c1,"0.871 µM [falling, full curve]","1.95 µM [falling, partial curve]",0.44,-0.287,"10.5 µM [falling, full curve]",0.116,"16.6 µM [falling, partial curve]"
Cn1c(=O)c(F)c(Nc2ccc(I)cc2F)c2c(=O)n(C[C@@H](O)CO)cnc21,"0.49 µM [falling, full curve, poor fit]","0.0309 µM [falling, full curve, poor fit]",-2.15,-0.612,"18.7 µM [falling, partial curve]",-0.169,"18.7 µM [falling, partial curve]"
Cc1ccccc1C(=O)c1ccc(Nc2ccc(Br)cc2N)cc1Cl,"15.5 µM [falling, partial curve]","11 µM [falling, partial curve, poor fit]",-0.105,0.194,"33.2 µM [falling, single point]",0.717,"18.7 µM [falling, partial curve, poor fit]"
COc1cc2nccc(Oc3ccc(NC(=O)C4(C(=O)Nc5ccc(F)cc5)CC4)cc3)c2cc1OC,"5.49 µM [falling, partial curve]","2.19 µM [falling, full curve]",-0.546,0.261,"16.6 µM [falling, partial curve]",-0.205,"10.5 µM [falling, partial curve]"
Cc1nc(N)ncc1-c1nc(N2CCOCC2)c2sc(C(C)(C)O)cc2n1,"2.45 µM [falling, partial curve]","11 µM [falling, partial curve]",-1.87,-0.671,"2.09 µM [falling, full curve]",-0.594,"2.35 µM [falling, full curve]"
Cc1cc(Nc2cc(CN3CCOCC3)c3nc(C)c(Cc4ccc(Cl)cc4F)n3n2)n[nH]1,"17.4 µM [falling, partial curve]","0.123 µM [falling, full curve]",0.283,-0.584,"16.6 µM [falling, partial curve]",0.463,"20.9 µM [falling, partial curve]"
Cn1cnc(-c2cc3nccc(Oc4ccc(NC(=S)NC(=O)Cc5ccccc5)cc4F)c3s2)c1,"21.9 µM [falling, single point]","13.8 µM [falling, single point]",0.201,0.202,"37.2 µM [falling, single point]",-1.38,"13.2 µM [falling, partial curve]"
